Experimental data: patent US20090118223A1, “Novel 2'-c-methyl and 4'c-methyl nucleoside derivatives” (priority 2005, published 2009)
Counter-ions that a name gives are not always drawn. At least one read-out could not be matched to a standard name with certainty.

assay: Liver targeting of 2′-C-methylcytidine and its prodrugs in rats: liver NTP vs plasma nucleoside (Example K); format: in vivo; conditions: male Sprague-Dawley rats, intraperitoneal, 5 mg/kg nucleoside equivalents; triphosphate of 2′-C-methylcytidine
Protocol: The liver specificity of the prodrug compounds 35.3, 35.4, and 35.5 was compared relative to the parent nucleoside, 2′-C-methylcytidine, by measuring the generation of NTP in the liver compared to nucleoside in the plasma.
Prodrug compounds 35.3, 35.4, 35.5, 38.3, 38.6, 40.1, 40.6, 40.7, 40.8, 41.2 or 2′-C-methylcytidine were administered intraperitoneally to male Sprague-Dawley rats at a dose of 5 mg/kg based on nucleoside equivalents (5 mg/kg 2′-C-methylcytidine and ˜7-10 mg/kg prodrug compounds). Plasma concentrations of 2′-C-methylcytidine and the liver concentrations of the 5′-triphosphate of 2′-C-methylcytidine were measured by LC-MS using the standard ion-pairing chromatography methods for nucleoside and triphospliate, respectively, as described in Example E. Conventional SAX HPLC-UV could not differentiate between endogenous CTP and 2′-C-methylcytidine triphosphate.

Compared with `C[C@@]1(O)[C@H](O)[C@@H](COP2(=O)OCCC(c3cc(Cl)cc(Cl)c3)O2)O[C@H]1n1ccc(N)nc1=O` (stereo partly drawn) [Compound 35.4, cis-5′-O-[4-(3,5-Dichlorophenyl)-2-oxo-1,2,3-dioxaphosphorin-2-yl]-2′-C-methylcytidine trifluoroacetic acid salt], `C[C@@]1(O)[C@H](O)[C@@H](COP2(=O)OCCC(c3cc(F)cc(F)c3)O2)O[C@H]1n1ccc(N)nc1=O` (stereo partly drawn) [Compound 35.5, cis-5′-O-[4-(3,5-Difluorophenyl)-2-oxo-1,2,3-dioxaphosphorin-2-yl]-2′-C-methylcytidine trifluoroacetic acid salt] is higher in “Liver NTP at Cmax” value: 71.60 nmol/g for the first, 192.73 nmol/g for the second.

Going from `C[C@@]1(O)[C@H](O)[C@@H](CO)O[C@H]1n1ccc(N)nc1=O` [2′-C-methylcytidine, reference compound] to `C[C@@]1(O)[C@H](O)[C@@H](COP2(=O)OCC[C@@H](c3cccc(Br)c3)O2)O[C@H]1n1ccc(N)nc1=O` (stereo partly drawn) [Compound 35.3, cis-5′-(0-[4-(3-Bromophenyl)-2-oxo-1,2,3-dioxaphosphorin-2-yl]-2′-C-methylcytidinetrifluoroacetic acid salt], the “Liver NTP at Cmax” value rises from 1.88 nmol/g to 149.20 nmol/g.

First: COc1cc(OC)cc(C(=O)Nc2ccn([C@@H]3O[C@H](COP4(=O)OCC[C@@H](c5cccc(Cl)c5)O4)[C@@H](O)[C@@]3(C)O)c(=O)n2)c1 (stereo partly drawn) [Compound 40.7, cis-5′-O-[4-(S)-(3-Chlorophenyl)-2-oxo-1,2,3-dioxaphosphorin-2-yl]-2′-C-methyl-N^4-(3,5-dimethoxybenzoyl)cytidine]
Second: C[C@@]1(O)[C@H](O)[C@@H](COP2(=O)OCC[C@@H](c3cccc(Cl)c3)O2)O[C@H]1n1ccc(NC(=O)c2ccc(F)cc2)nc1=O (stereo partly drawn) [Compound 40.1, cis-5′-O-[4-(S)-(3-Chlorophenyl)-2-oxo-1,2,3-dioxaphosphorin-2-yl]-2′—C-methyl-N″-(4-fluorobenzoyl)cytidine]
The “Liver NTP at Cmax” value of the first is lower: 15.28 nmol/g for the first, 37.76 nmol/g for the second.

Going from `CC(C)(C)COC(=O)Nc1ccn([C@@H]2O[C@H](COP3(=O)OCC[C@@H](c4cccc(Cl)c4)O3)[C@@H](O)[C@@]2(C)O)c(=O)n1` (stereo partly drawn) [Compound 38.6, cis-5′-O-[4-(S)-(3-Chlorophenyl)-2-oxo-1,2,3-dioxaphosphorin-2-yl]-2′-C-methyl-N^4-[2,2-(dimethyl)propyloxycarbonyl]cytidine] to `C[C@@]1(O)[C@H](O)[C@@H](COP2(=O)OCC[C@@H](c3cccc(Cl)c3)O2)O[C@H]1n1ccc(NC(=O)OCc2ccccc2)nc1=O` (stereo partly drawn) [Compound 38.3, cis-5′-O-[4-(S)-(3-Chlorophenyl)-2-oxo-1,2,3-dioxaphosphorin-2-yl]-2′-C-methyl-N^4-(benzyloxycarbonyl)cytidine], the “Liver NTP at Cmax” value rises from 19.8 nmol/g to 161.65 nmol/g.

First: C[C@@]1(O)[C@H](O)[C@@H](COP2(=O)OCC[C@@H](c3cccc(Cl)c3)O2)O[C@H]1n1ccc(NC(=O)c2ccccc2)nc1=O (stereo partly drawn) [Compound 40.8, cis-5′-O-[4-(S)-(3-Chlorophenyl)-2-oxo-1,2,3-dioxaphosphorin-2-yl]-2′-C-methyl-4-(benzoyl)cytidine]
Second: C[C@@]1(O)[C@H](O)[C@@H](COP2(=O)OCC[C@@H](c3cccc(Cl)c3)O2)O[C@H]1n1ccc(NC(=O)C2CCCC2)nc1=O (stereo partly drawn) [Compound 40.6, cis-5′-O-[4-(S)-(3-Chlorophenyl)-2-oxo-1,2,3-dioxaphohsphorin-2-yl]-2′-C-methyl-N^4-(cyclopentanecarbonyl)cytidine trifluoroacetic acid salt]
The “Liver NTP at Cmax” value of the first is higher: 62.61 nmol/g for the first, 40.09 nmol/g for the second.
